Our source for the binding values is article PMC7948509.

Amino acid sequences for entries named in this document (tags omitted).
UniProt Q9BSQ5: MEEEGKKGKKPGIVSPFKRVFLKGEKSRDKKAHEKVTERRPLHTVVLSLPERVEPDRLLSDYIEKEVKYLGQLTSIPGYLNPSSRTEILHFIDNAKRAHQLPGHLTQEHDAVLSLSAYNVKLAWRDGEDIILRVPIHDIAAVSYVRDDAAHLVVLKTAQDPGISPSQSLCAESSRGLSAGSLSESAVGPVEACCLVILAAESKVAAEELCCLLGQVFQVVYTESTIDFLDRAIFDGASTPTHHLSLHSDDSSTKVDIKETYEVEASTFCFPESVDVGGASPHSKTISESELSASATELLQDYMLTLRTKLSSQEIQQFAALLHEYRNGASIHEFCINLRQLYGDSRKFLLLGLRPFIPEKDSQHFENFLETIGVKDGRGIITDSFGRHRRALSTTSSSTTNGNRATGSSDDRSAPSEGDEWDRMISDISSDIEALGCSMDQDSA

Assay [1] deals with T1, MEKK3 (endogenous) (human (endogenous in HEK293T and HEK293A)) (UniProt Q99759).
T1 sequence: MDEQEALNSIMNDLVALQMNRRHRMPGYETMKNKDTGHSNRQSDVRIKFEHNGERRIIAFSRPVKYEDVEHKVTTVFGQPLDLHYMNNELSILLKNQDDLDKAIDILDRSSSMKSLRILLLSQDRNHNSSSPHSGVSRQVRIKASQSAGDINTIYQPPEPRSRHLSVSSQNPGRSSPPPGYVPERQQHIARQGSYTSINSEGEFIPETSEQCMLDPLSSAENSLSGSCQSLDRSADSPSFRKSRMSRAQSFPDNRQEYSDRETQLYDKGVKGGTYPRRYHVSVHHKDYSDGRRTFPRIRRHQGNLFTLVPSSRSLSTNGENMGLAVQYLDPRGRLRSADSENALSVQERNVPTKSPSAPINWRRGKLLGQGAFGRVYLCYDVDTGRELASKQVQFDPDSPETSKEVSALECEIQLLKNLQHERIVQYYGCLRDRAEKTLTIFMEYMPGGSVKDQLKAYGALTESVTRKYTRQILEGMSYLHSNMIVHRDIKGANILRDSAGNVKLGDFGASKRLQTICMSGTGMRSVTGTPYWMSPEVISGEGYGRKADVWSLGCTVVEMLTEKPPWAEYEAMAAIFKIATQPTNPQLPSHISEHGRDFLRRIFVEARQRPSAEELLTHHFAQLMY
Kind of assay: co-IP; endogenous MEKK3 immunoprecipitated from HEK293A cell lysates; detection with anti-STRN3 and anti-CCM2 antibody (Fig. 6D, untreated).

The target of assay [2] is T1, MEKK3 (endogenous) (human (endogenous in HEK293T and HEK293A)). Kind of assay: condition: only cells serum-starved for 2 h or treated with LatB for 1 h; co-IP; as a11, but HEK293A cells serum-starved for 2 h or treated with LatB for 1 h (Fig. 6D).

Results are given in words; binding and its absence hold for the method and conditions named. In cells and extracts the contact can be indirect. Some entries that bind do so weakly or less than the wild type.

“CCM2 (endogenous) (from UniProt Q9BSQ5 1-444)”: the values for the binding entry in assay [1] and in assay [2] were “binds” and “no binding”, respectively.
